{"source": "the supplement of paper PMC8728848", "binders": {"B1": {"name": "SSA (Sclerotinia sclerotiorum), A7XUK7 (protein)", "chain": "MGFKGVGTYEIVPYQAPSLNLNAWEGKLEPGAVVRTYTRGDKPSDNAKWQVALVAGSGDSAEYLIINVHSGYFLTATKENHIVSTPQISPTDPSARWTIKPATTHQYEVFTINNKVSELGQLTVKDYSTHSGADVLSASAKTADNQKWYFDAK"}}, "experiment_in_all_cases": "glycan array binding signal (z-score within array); higher = stronger binding", "settings_in_all_cases": "glycan notation: IUPAC condensed, linker removed", "key": {"[1]": {"target": "GlcNAc(a1-4)Gal(b1-4)GlcNAc(b1-3)Gal(b1-4)GlcNAc(b1-3)Gal(b1-4)GlcNAc", "outline": "(§1)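 Glycan array data came from 3228 arrays in the Consortium for Functional Glycomics database, and only arrays with an available protein sequence were kept. Glycan names were put into IUPAC-condensed notation, and columns mapping to the same glycan were averaged. The binding signal is a within-array Z-score, averaged across arrays of one protein sequence run at different concentrations or buffers and across linkers. A negative Z-score can be read as non-binding.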"}, "[2]": {"target": "GlcNAc(a1-4)Gal(b1-4)GlcNAc(b1-3)Gal(b1-4)[Fuc(a1-3)]GlcNAc(b1-3)Gal(b1-4)[Fuc(a1-3)]GlcNAc", "outline": "as §1"}, "[3]": {"target": "GlcNAc(a1-6)Gal(b1-4)GlcNAc", "outline": "as §1"}, "[4]": {"target": "GlcNAc(b1-2)Gal(b1-3)GalNAc", "outline": "as §1"}, "[5]": {"target": "GlcNAc(b1-2)Man(a1-3)[GlcNAc(b1-2)Man(a1-6)]Man(b1-4)GlcNAc(b1-4)GlcNAc", "outline": "as §1"}, "[6]": {"target": "GlcNAc(b1-2)Man(a1-3)[GlcNAc(b1-2)Man(a1-6)]Man(b1-4)GlcNAc(b1-4)[Fuc(a1-6)]GlcNAc", "outline": "as §1"}, "GlcNAc(b1-3)Gal": {"target": "GlcNAc(b1-3)Gal", "outline": "as §1"}, "[7]": {"target": "GlcNAc(b1-3)Gal(b1-3)GalNAc", "outline": "as §1"}, "GlcNAc(b1-3)Gal(b1-4)Glc": {"target": "GlcNAc(b1-3)Gal(b1-4)Glc", "outline": "as §1"}, "[8]": {"target": "GlcNAc(b1-3)Gal(b1-4)GlcNAc", "outline": "as §1"}, "[9]": {"target": "GlcNAc(b1-3)Gal(b1-4)GlcNAc(b1-3)Gal(b1-4)GlcNAc", "outline": "as §1"}, "GlcNAc(b1-3)GalNAc": {"target": "GlcNAc(b1-3)GalNAc", "outline": "as §1"}, "GlcNAc(b1-3)Man": {"target": "GlcNAc(b1-3)Man", "outline": "as §1"}, "[10]": {"target": "GlcNAc(b1-3)[GlcNAc(b1-4)][GlcNAc(b1-6)]GlcNAc", "outline": "as §1"}, "[11]": {"target": "GlcNAc(b1-3)[GlcNAc(b1-6)]Gal(b1-4)GlcNAc", "outline": "as §1"}, "[12]": {"target": "GlcNAc(b1-3)[GlcNAc(b1-6)]GalNAc", "outline": "as §1"}, "[13]": {"target": "GlcNAc(b1-3)[GlcNAc(b1-6)]GlcNAc(b1-4)GlcNAc", "outline": "as §1"}, "[14]": {"target": "GlcNAc(b1-4)Gal(b1-4)GlcNAc", "outline": "as §1"}, "GlcNAc(b1-4)GlcNAc": {"target": "GlcNAc(b1-4)GlcNAc", "outline": "as §1"}, "[15]": {"target": "GlcNAc(b1-4)GlcNAc(b1-4)GlcNAc", "outline": "as §1"}, "[16]": {"target": "GlcNAc(b1-4)GlcNAc(b1-4)GlcNAc(b1-4)GlcNAc(b1-4)GlcNAc", "outline": "as §1"}, "[17]": {"target": "GlcNAc(b1-4)GlcNAc(b1-4)GlcNAc(b1-4)GlcNAc(b1-4)GlcNAc(b1-4)GlcNAc", "outline": "as §1"}, "[18]": {"target": "GlcNAc(b1-4)[GlcNAc(b1-6)]GalNAc", "outline": "as §1"}, "[19]": {"target": "GlcNAc(b1-6)Gal(b1-4)GlcNAc", "outline": "as §1"}, "GlcNAc(b1-6)GalNAc": {"target": "GlcNAc(b1-6)GalNAc", "outline": "as §1"}, "GlcNAc3Prop(b1-4)GlcNAc": {"target": "GlcNAc3Prop(b1-4)GlcNAc", "outline": "as §1"}, "[20]": {"target": "GlcNAc6S(b1-3)Gal(b1-4)GlcNAc", "outline": "as §1"}, "Kdn(a2-3)Gal(b1-3)GalNAc": {"target": "Kdn(a2-3)Gal(b1-3)GalNAc", "outline": "as §1"}, "Kdn(a2-3)Gal(b1-3)GlcNAc": {"target": "Kdn(a2-3)Gal(b1-3)GlcNAc", "outline": "as §1"}, "Kdn(a2-3)Gal(b1-4)Glc": {"target": "Kdn(a2-3)Gal(b1-4)Glc", "outline": "as §1"}, "Kdn(a2-3)Gal(b1-4)GlcNAc": {"target": "Kdn(a2-3)Gal(b1-4)GlcNAc", "outline": "as §1"}, "[21]": {"target": "Kdn(a2-3)Gal(b1-4)[Fuc(a1-3)]GlcNAc", "outline": "as §1"}, "Kdn(a2-6)Gal(b1-4)GlcNAc": {"target": "Kdn(a2-6)Gal(b1-4)GlcNAc", "outline": "as §1"}, "[22]": {"target": "Man(a1-2)Man(a1-2)Man(a1-3)Man", "outline": "as §1"}, "[23]": {"target": "Man(a1-2)Man(a1-2)Man(a1-6)[Man(a1-3)]Man", "outline": "as §1"}, "Man(a1-2)Man(a1-3)Man": {"target": "Man(a1-2)Man(a1-3)Man", "outline": "as §1"}, "[24]": {"target": "Man(a1-2)Man(a1-3)[Man(a1-2)Man(a1-6)]Man", "outline": "as §1"}, "[25]": {"target": "Man(a1-2)Man(a1-3)[Man(a1-2)Man(a1-6)]Man(a1-6)[Man(a1-2)Man(a1-2)Man(a1-3)]Man", "outline": "as §1"}, "[26]": {"target": "Man(a1-2)Man(a1-3)[Man(a1-2)Man(a1-6)]Man(a1-6)[Man(a1-2)Man(a1-2)Man(a1-3)]Man(b1-4)GlcNAc(b1-4)GlcNAc", "outline": "as §1"}, "[27]": {"target": "Man(a1-2)Man(a1-3)[Man(a1-6)]Man(a1-6)[Man(a1-2)Man(a1-3)]Man(b1-4)GlcNAc(b1-4)GlcNAc", "outline": "as §1"}, "[28]": {"target": "Man(a1-2)Man(a1-6)[Man(a1-3)]Man(a1-6)[Man(a1-2)Man(a1-2)Man(a1-3)]Man", "outline": "as §1"}, "[29]": {"target": "Man(a1-2)Man(a1-6)[Man(a1-3)]Man(a1-6)[Man(a1-2)Man(a1-2)Man(a1-3)]Man(b1-4)GlcNAc(b1-4)GlcNAc", "outline": "as §1"}, "Man(a1-3)[Man(a1-6)]Man": {"target": "Man(a1-3)[Man(a1-6)]Man", "outline": "as §1"}, "[30]": {"target": "Man(a1-3)[Man(a1-6)]Man(a1-6)[Man(a1-2)Man(a1-3)]Man(b1-4)GlcNAc(b1-4)GlcNAc", "outline": "as §1"}, "[31]": {"target": "Man(a1-3)[Man(a1-6)]Man(a1-6)[Man(a1-3)]Man", "outline": "as §1"}}, "note": "Some of the results follow.", "data": [{"binder": "B1", "values": [{"measurement": "glycan array binding signal (z-score)", "setting": "[1]", "result": -0.05}, {"measurement": "glycan array binding signal (z-score)", "setting": "[2]", "result": 0.158}, {"measurement": "glycan array binding signal (z-score)", "setting": "[3]", "result": -0.348}, {"measurement": "glycan array binding signal (z-score)", "setting": "[4]", "result": -0.233}, {"measurement": "glycan array binding signal (z-score)", "setting": "[5]", "result": -0.274}, {"measurement": "glycan array binding signal (z-score)", "setting": "[6]", "result": -0.123}, {"measurement": "glycan array binding signal (z-score)", "setting": "GlcNAc(b1-3)Gal", "result": -0.526}, {"measurement": "glycan array binding signal (z-score)", "setting": "[7]", "result": -0.406}, {"measurement": "glycan array binding signal (z-score)", "setting": "GlcNAc(b1-3)Gal(b1-4)Glc", "result": -0.397}, {"measurement": "glycan array binding signal (z-score)", "setting": "[8]", "result": -0.342}, {"measurement": "glycan array binding signal (z-score)", "setting": "[9]", "result": -0.207}, {"measurement": "glycan array binding signal (z-score)", "setting": "GlcNAc(b1-3)GalNAc", "result": -0.46}, {"measurement": "glycan array binding signal (z-score)", "setting": "GlcNAc(b1-3)Man", "result": -0.302}, {"measurement": "glycan array binding signal (z-score)", "setting": "[10]", "result": -0.349}, {"measurement": "glycan array binding signal (z-score)", "setting": "[11]", "result": -0.335}, {"measurement": "glycan array binding signal (z-score)", "setting": "[12]", "result": -0.367}, {"measurement": "glycan array binding signal (z-score)", "setting": "[13]", "result": -0.467}, {"measurement": "glycan array binding signal (z-score)", "setting": "[14]", "result": -0.391}, {"measurement": "glycan array binding signal (z-score)", "setting": "GlcNAc(b1-4)GlcNAc", "result": -0.358}, {"measurement": "glycan array binding signal (z-score)", "setting": "[15]", "result": -0.031}, {"measurement": "glycan array binding signal (z-score)", "setting": "[16]", "result": -0.361}, {"measurement": "glycan array binding signal (z-score)", "setting": "[17]", "result": -0.42}, {"measurement": "glycan array binding signal (z-score)", "setting": "[18]", "result": -0.416}, {"measurement": "glycan array binding signal (z-score)", "setting": "[19]", "result": -0.344}, {"measurement": "glycan array binding signal (z-score)", "setting": "GlcNAc(b1-6)GalNAc", "result": -0.398}, {"measurement": "glycan array binding signal (z-score)", "setting": "GlcNAc3Prop(b1-4)GlcNAc", "result": -0.231}, {"measurement": "glycan array binding signal (z-score)", "setting": "[20]", "result": -0.17}, {"measurement": "glycan array binding signal (z-score)", "setting": "Kdn(a2-3)Gal(b1-3)GalNAc", "result": -0.147}, {"measurement": "glycan array binding signal (z-score)", "setting": "Kdn(a2-3)Gal(b1-3)GlcNAc", "result": -0.31}, {"measurement": "glycan array binding signal (z-score)", "setting": "Kdn(a2-3)Gal(b1-4)Glc", "result": -0.228}, {"measurement": "glycan array binding signal (z-score)", "setting": "Kdn(a2-3)Gal(b1-4)GlcNAc", "result": -0.211}, {"measurement": "glycan array binding signal (z-score)", "setting": "[21]", "result": -0.128}, {"measurement": "glycan array binding signal (z-score)", "setting": "Kdn(a2-6)Gal(b1-4)GlcNAc", "result": -0.213}, {"measurement": "glycan array binding signal (z-score)", "setting": "[22]", "result": -0.25}, {"measurement": "glycan array binding signal (z-score)", "setting": "[23]", "result": -0.351}, {"measurement": "glycan array binding signal (z-score)", "setting": "Man(a1-2)Man(a1-3)Man", "result": -0.3}, {"measurement": "glycan array binding signal (z-score)", "setting": "[24]", "result": -0.181}, {"measurement": "glycan array binding signal (z-score)", "setting": "[25]", "result": -0.381}, {"measurement": "glycan array binding signal (z-score)", "setting": "[26]", "result": -0.34}, {"measurement": "glycan array binding signal (z-score)", "setting": "[27]", "result": -0.288}, {"measurement": "glycan array binding signal (z-score)", "setting": "[28]", "result": -0.407}, {"measurement": "glycan array binding signal (z-score)", "setting": "[29]", "result": -0.382}, {"measurement": "glycan array binding signal (z-score)", "setting": "Man(a1-3)[Man(a1-6)]Man", "result": -0.372}, {"measurement": "glycan array binding signal (z-score)", "setting": "[30]", "result": -0.178}, {"measurement": "glycan array binding signal (z-score)", "setting": "[31]", "result": -0.439}]}]}
